# Laboratory results: PubChem BioAssay AID2147 (National Center for Advancing Translational Sciences (NCATS), 2009)
# Screen size: about 230,000 compounds; about 3,600 (1.6%) were called active. This list was built around the results that the source calls inconclusive (neither active nor inactive); the mix of calls is not that of the screen. Calls follow the shape of the dose curve; as a rule, active = well fitted inhibition curve with a large enough effect (not every such curve was filed as active); inconclusive = small, poorly fitted or top-dose-only effect, or another doubt; inactive = no such curve, though single readings can be large or run the other way. Potencies beside an inconclusive call are fits to weak or partial responses and may not hold up.
# Target: Lysine-specific demethylase 4E (Homo sapiens) (UniProt B2RXH2)
# Test: qHTS Assay for Inhibitors of Human Jumonji Domain Containing 2E (JMJD2E)
# Settings: JMJD2E catalytic domain, FDH-coupled NADH fluorescence (FDH is formaldehyde dehydrogenase); series mostly up to 57.1 µM
# Also: nearly all actives have a fitted effect of over 50% in size.
# Potency is read from the fitted curve at half-maximal effect; tags tell the direction and shape of the fitted curve.
# Sequence of UniProt B2RXH2 (B2RXH2 whole entry, looked up, the tested form may be a part): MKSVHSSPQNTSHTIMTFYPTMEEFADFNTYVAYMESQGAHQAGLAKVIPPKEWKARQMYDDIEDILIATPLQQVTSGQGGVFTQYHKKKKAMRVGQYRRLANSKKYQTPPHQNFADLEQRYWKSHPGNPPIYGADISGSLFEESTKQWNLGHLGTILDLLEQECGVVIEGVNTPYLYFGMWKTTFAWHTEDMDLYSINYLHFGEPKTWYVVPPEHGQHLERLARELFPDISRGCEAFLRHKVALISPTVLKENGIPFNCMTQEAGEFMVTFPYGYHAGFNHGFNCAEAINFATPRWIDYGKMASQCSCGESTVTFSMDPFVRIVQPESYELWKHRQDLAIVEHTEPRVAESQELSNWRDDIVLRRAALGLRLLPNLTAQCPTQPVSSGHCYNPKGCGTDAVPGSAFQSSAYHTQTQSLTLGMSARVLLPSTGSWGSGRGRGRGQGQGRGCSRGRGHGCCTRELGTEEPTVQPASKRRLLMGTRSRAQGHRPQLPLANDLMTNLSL
row,Compound,Potency
1,COc1ccc(OC)c(C2=NOC(C(=O)Nc3c(C)n(C)n(-c4ccccc4)c3=O)C2)c1 (stereo unspecified),"inconclusive: 28.2 µM [inhibitor, single point]"
2,COc1ccc(S(=O)(=O)N2CCOC2CNC(=O)C(=O)NCc2ccco2)cc1 (stereo unspecified),"inconclusive: 8.91 µM [inhibitor, single point]"
3,Cc1cc2ccccn2c1C(=O)c1ccncc1,inactive
4,Cc1cccc(C(=O)Nc2ccc(NC(=O)Cc3ccc(Cl)cc3)cc2)c1,"inconclusive: 25.1 µM [inhibitor, single point]"
5,Cc1cccc(NC(=O)Nc2nnc(-c3ccccc3)o2)c1,"inconclusive: 25.1 µM [inhibitor, single point]"
6,COC(=O)c1ccncc1N,"inconclusive: 31.6 µM [inhibitor, partial curve]"
7,Cc1ccn2cc(CCNC(=O)CC(C)(C)C)nc2c1,"inconclusive: 31.6 µM [inhibitor, partial curve]"
8,Cc1cc(C)nc(SCc2nc3nc(C)cc(C)n3c2Br)n1,"inconclusive: 25.1 µM [inhibitor, partial curve]"
9,O=C(NCc1ccco1)c1cnn2c(C(F)(F)F)cc(-c3cccs3)nc12,"inconclusive: 25.1 µM [inhibitor, partial curve]"
10,CCc1ccc2c(CN3CCc4cc(OC)c(OC)cc4C3)cc(=O)oc2c1,"inconclusive: 20 µM [inhibitor, partial curve]"
11,Cc1c(F)cccc1NS(=O)(=O)c1ccc(OCCNS(C)(=O)=O)cc1,"inconclusive: 35.5 µM [inhibitor, single point]"
12,O=C(CNc1cccc2ccccc12)N/N=C/c1ccc(OC(=O)/C=C/c2ccco2)cc1,inactive
13,CCOC(=O)COc1cnc2ccccc2n1,"inconclusive: 31.6 µM [inhibitor, partial curve]"
14,Cc1ccc(OCC(=O)Nc2cccc3nsnc23)c(C)c1,"inconclusive: 12.6 µM [inhibitor, partial curve]"
15,CC1CC(C)CN(CC(=O)N2CCc3[nH]c4ccccc4c3C2)C1 (stereo unspecified),"inconclusive: 39.8 µM [inhibitor, single point]"
16,CCOC(=O)C1=CN(Cc2ccc(OC)cc2)C=C(C(=O)OCC)C1c1cccs1,"inconclusive: 31.6 µM [inhibitor, partial curve]"
17,CCNC(=O)[C@H]1O[C@@H](n2cnc3c(N)nc(NCCc4ccc(CCC(=O)O)cc4)nc32)[C@H](O)[C@@H]1O,"inconclusive: 28.2 µM [inhibitor, single point]"
18,CC(=O)N(C(C)=O)c1ncc2c([nH]c3ccccc32)c1C#N,"inconclusive: 31.6 µM [inhibitor, partial curve]"
19,Nc1nc(Nc2ccccc2)nc(NCc2ccco2)c1[N+](=O)[O-],inactive
20,CCCN1C(=O)/C(=C/c2ccc(C)o2)SC1=Nc1ccc(OC)cc1,"inconclusive: 39.8 µM [inhibitor, single point]"
21,O=C(c1ccco1)N(Cc1ccccc1)c1cccc([N+](=O)[O-])c1,"inconclusive: 39.8 µM [inhibitor, single point]"
22,CCN(CC)c1ccc(/C=N/NC(=O)c2cccc(S(=O)(=O)N3CCOCC3)c2)c(O)c1,"inconclusive: 31.6 µM [inhibitor, partial curve]"
23,Nc1c(S(=O)(=O)c2ccccc2)c2nc3ccccc3nc2n1/N=C/c1ccco1,"inconclusive: 25.1 µM [inhibitor, partial curve]"
24,O=C(NCc1nnc(SCC(=O)N2CCC(Cc3ccccc3)CC2)o1)c1ccccc1F,inactive

row,Compound,Potency
1,O=C1CC(c2ccccc2)Oc2ccccc21 (stereo unspecified),"inconclusive: 35.5 µM [inhibitor, single point]"
2,CCOC(=O)c1ccc(N2C(=O)CC(SCC(N)C(=O)OCC)C2=O)cc1 (stereo unspecified),inactive
3,O=C(c1cc2nc(-c3cccs3)cc(C(F)(F)F)n2n1)N1CCCc2ccccc21,"inconclusive: 25.1 µM [inhibitor, single point]"
4,CN1C(=O)/C(=C/c2ccccc2OCc2cccc(F)c2)N(C)C1=S,inactive
5,N#Cc1c(-c2ccccc2)c(C#N)c2nc3ccccc3n2c1N,"inconclusive: 28.2 µM [inhibitor, partial curve]"
6,CC(=O)N(CN1C(=O)c2ccc([N+](=O)[O-])cc2C1=O)c1ccc(F)cc1,"inconclusive: 14.1 µM [inhibitor, partial curve]"
7,COc1ccc(/C=N/NC(=O)c2ccccc2Cl)cc1CSc1nc2ccccc2s1,"inconclusive: 39.8 µM [inhibitor, single point]"
8,O=C(CN1CCN(c2ccccc2F)CC1)c1ccc2cc[nH]c2c1,"inconclusive: 35.5 µM [inhibitor, single point]"
9,CCC1CCCN1Cn1cnc2c([nH]c3ccccc32)c1=O (stereo unspecified),"inconclusive: 31.6 µM [inhibitor, partial curve]"
10,COc1cc(CN2CCC(C(=O)NC3CCCC3)CC2)cc(Br)c1O,"inconclusive: 25.1 µM [inhibitor, single point]"
11,N#CC(C(=O)Nc1ccccc1)=C1Nc2ccccc2N1,"inconclusive: 39.8 µM [inhibitor, single point]"
12,Cc1ccc2nc(N3CCN(C=O)CC3)nc(-c3ccccc3)c2c1,"inconclusive: 31.6 µM [inhibitor, partial curve]"
13,COc1ccc(-c2nc3ccccc3c(=O)n2CCCN2CCOCC2)cc1,inactive
14,O=C(NCC1CCCO1)C(c1cccs1)N(C(=O)Cn1nnc(-c2cccs2)n1)C1CCCC1 (stereo unspecified),inactive
15,Cc1cc(C)cc(NC(=O)C2CCCN(c3nc(C)cc(C)n3)C2)c1 (stereo unspecified),inactive
16,Cc1ccc(NC(=O)CN2C(=O)S/C(=C\c3cccn3-c3cccc(C(=O)O)c3)C2=O)cc1C,"inconclusive: 35.5 µM [inhibitor, single point]"
17,CCCc1nnc(NC(=O)CCC(=O)N2CCN(S(=O)(=O)c3ccc(C)cc3)CC2)s1,inactive
18,Cn1c(=O)c2c(nc(CN3CCN(C(=O)c4ccco4)CC3)n2Cc2ccc(Cl)cc2)n(C)c1=O,inactive
19,COc1cnc(-c2ccccn2)nc1Sc1ccccc1Cl,inactive
20,Cc1cc(C)n(-c2nc3c(c(=O)[nH]c(=O)n3C)n2CC(O)COc2ccc(Cl)cc2Cl)n1 (stereo unspecified),inactive
21,O=C(Nc1ccc(-c2cnco2)cc1)c1ccccc1,"inconclusive: 0.01 µM [inhibitor, full curve, poor fit]"
22,CC(C)CN(CC(C)C)C1=N/C(=C\c2ccco2)C(=O)N1c1ccccc1,"inconclusive: 39.8 µM [inhibitor, single point]"
23,Cc1ccc(-n2nc(C)c3c2OC(N)=C(C#N)C3c2ccc(C)o2)cc1 (stereo unspecified),active: 25.1 µM
24,O=C(Oc1c(CN2CCOCC2)cc(Cl)c2cccnc12)c1ccccc1Br,"inconclusive: 39.8 µM [inhibitor, single point]"

row,Compound,Potency
1,Cc1cccc(-c2noc(CCC(=O)NCc3ccco3)n2)c1,inactive
2,COc1ccc(C2Nc3ccc4ccccc4c3-c3c2c(=O)oc2ccccc32)cc1 (stereo unspecified),active: 3.16 µM
3,O=C(CCCN1C(=O)/C(=C/c2ccccc2)SC1=S)Nc1ccccc1O,inactive
4,COc1ccc(OC)c(N=CC2=C(O)CC(C)(C)CC2=O)c1,"inconclusive: 17.8 µM [inhibitor, partial curve]"
5,Clc1ccc(OCc2cn3cccnc3n2)c2ncccc12,"inconclusive: 25.1 µM [inhibitor, partial curve]"
6,CC(=O)Nc1sc2c(c1C(c1ccccn1)N1CCCC1)CCCC2 (stereo unspecified),"inconclusive: 39.8 µM [inhibitor, single point]"
7,O=C(c1ccccn1)c1ccc2ccccc2n1,"inconclusive: 12.6 µM [inhibitor, partial curve]"
8,C=CCN1CC(C(=O)N2CCC(Cc3ccc(Cl)cc3)(C(=O)OCC)CC2)CC1=O (stereo unspecified),inactive
9,O=C(Nc1ccc2nc(-c3ccco3)[nH]c2c1)c1ccco1,inactive
10,CN(Cc1cn[nH]c1-c1ccc2c(c1)OCO2)C1CCOCC1,inactive
11,Cc1ccc(C(=O)N/N=C\c2cc3c(cc2Br)OCO3)s1,"inconclusive: 28.2 µM [inhibitor, partial curve]"
12,Cc1ccc(NC(=O)CNc2ccc(OC(C)C)cc2)c(C)c1,inactive
13,CCCCNc1nc2c(S(=O)(=O)c3ccccc3)nnn2c2ccccc12,"inconclusive: 4.47 µM [inhibitor, partial curve]"
14,Cc1ccc(C(=O)N2CCn3c(C)ccc3C2C)cc1 (stereo unspecified),"inconclusive: 39.8 µM [inhibitor, single point]"
15,CC(=O)[C@@]1(O)CC[C@H]2C3CCC4=CC(=O)CC[C@]4(C)C3CC[C@@]21C (stereo partly specified),inactive
16,CCN(CC)CC(=O)Nc1ccccc1SCC(=O)Nc1ccsc1C(=O)OC,inactive
17,Cn1c(=O)c(=O)n(C)c2cc(S(=O)(=O)N3CC(=O)N(CCc4ccccc4)C(=O)C3)ccc21,"inconclusive: 35.5 µM [inhibitor, partial curve]"
18,CSc1nc(SCC(=O)O)c2c3c(sc2n1)COC(C)(C)C3,"inconclusive: 28.2 µM [inhibitor, partial curve]"
19,COc1ccc(-c2csc(NC(=O)c3cccc(S(=O)(=O)N4CCN(C)CC4)c3)n2)cc1,"inconclusive: 39.8 µM [inhibitor, single point]"
20,CCN(CC)CCCC(C)Nc1ccnc2cc(Cl)ccc12 (stereo unspecified),"inconclusive: 39.8 µM [inhibitor, single point]"
21,c1ccc(CCNc2ncnc3scc(C4COc5ccccc5O4)c23)cc1 (stereo unspecified),inactive
22,O=C(O)COc1ccccc1/C=N/NC(=O)CSc1nc2ccccc2s1,inactive
23,COc1ccc(CCNC(=O)CSc2nnc3ccccn23)cc1,"inconclusive: 25.1 µM [inhibitor, single point]"
